According to article PMC6919601, “Identification of Plasmodium dipeptidyl aminopeptidase allosteric inhibitors by high throughput screening” (PLoS ONE, 2019):
The campaign covered roughly 110,000 compounds. About 230 (0.21%) showed an effect of 50% or more. The list shows a part of the results.

biological target: DPAP1 (Plasmodium falciparum, UniProt Q8IIJ9); test: primary screen, percent inhibition; read by cleavage of a fluorogenic dipeptide substrate; higher = more effect of the substance; parameters: species or system P. falciparum D10 trophozoite lysates; single well
Sequence (Q8IIJ9 whole entry, looked up): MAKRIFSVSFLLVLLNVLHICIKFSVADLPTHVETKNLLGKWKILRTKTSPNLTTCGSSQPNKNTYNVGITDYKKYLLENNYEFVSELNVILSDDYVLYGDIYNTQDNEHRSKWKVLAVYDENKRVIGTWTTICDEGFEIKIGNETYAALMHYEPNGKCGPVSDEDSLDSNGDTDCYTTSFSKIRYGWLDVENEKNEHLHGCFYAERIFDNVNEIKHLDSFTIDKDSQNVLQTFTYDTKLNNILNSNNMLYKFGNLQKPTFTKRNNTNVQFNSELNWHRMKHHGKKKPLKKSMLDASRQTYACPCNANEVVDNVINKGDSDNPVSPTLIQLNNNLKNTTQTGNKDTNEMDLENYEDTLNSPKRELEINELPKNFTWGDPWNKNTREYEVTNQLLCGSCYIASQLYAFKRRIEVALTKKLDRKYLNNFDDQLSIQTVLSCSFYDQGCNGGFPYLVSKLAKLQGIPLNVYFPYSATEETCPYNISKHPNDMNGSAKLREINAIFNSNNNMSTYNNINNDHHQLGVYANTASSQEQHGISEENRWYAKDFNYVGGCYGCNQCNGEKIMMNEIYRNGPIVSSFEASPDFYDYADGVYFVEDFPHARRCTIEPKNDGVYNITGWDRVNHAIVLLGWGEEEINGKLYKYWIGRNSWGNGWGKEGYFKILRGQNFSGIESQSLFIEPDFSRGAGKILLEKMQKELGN
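Also: 30 min substrate incubation versus DMSO and 10 µM JCP410 controls.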

| Structure (SMILES) | % Inhibition @ 10 uM [%] |
| --- | --- |
| Cc1ccc(C(=O)Nc2nc3ccccc3s2)o1 | 0.35 |
| Cc1cc(O)nc2c1cnn2C1CCCCC1 | -5.91 |
| CCCCNC(=O)C(C)N(c1ccc(OC)cc1)S(C)(=O)=O (stereo not drawn) | -8.31 |
| CCOCCCNCc1cccc(C)c1 | 3.66 |
| Cc1cccc2sc(NC(=O)CN(C)S(=O)(=O)c3cccs3)nc12 | 1.16 |
| O=C(NC1CCCCCC1)c1csc2c1CCCC2 | 1.61 |
| COc1ccc2nc(NC(=O)c3ccc(F)cc3)sc2c1 | 4.54 |
| Cc1ccccc1NC(=O)c1cc(S(N)(=O)=O)ccc1Cl | -5.15 |
| CC(Cc1ccc(F)cc1)N1CCN(c2ccccc2)CC1 (stereo not drawn) | -4.04 |
| Cn1cc(C(=O)Nc2ccc3c(c2)CCC3)cn1 | 1.02 |
| O=C(Nc1ccncc1)c1cc(-c2ccccc2Cl)nc2ccccc12 | 2.44 |
| CC(=O)c1ccc(NC(=O)C2COc3ccccc3O2)cc1 (stereo not drawn) | -12.3 |
| O=C(c1ccco1)N1CCN(C(=O)c2cc(-c3ccccc3F)no2)CC1 | -4.49 |
| COc1ccc(NC(=O)CC2Sc3ccc(C(F)(F)F)cc3NC2=O)cc1 (stereo not drawn) | 2.92 |
| Cc1cc(C(F)F)nn1CC(=O)Nc1cccc(F)c1 | 1.67 |
| COc1cccc(C2C(C(=O)Nc3ccccc3)=C(C)N=c3s/c(=C/c4ccsc4)c(=O)n32)c1 (stereo not drawn) | -3.77 |
| O=C(CN1C(=O)c2ccccc2C1=O)Nc1nc2n(n1)C(c1ccc(F)cc1)CC(c1ccccc1)N2 (stereo not drawn) | -0.671 |
| Cn1c2c(c(=O)n(C)c1=O)C(c1ccc(OCc3ccccc3)cc1)C1=C(O)c3ccccc3C1=N2 (stereo not drawn) | 7.1 |
| COC(=O)C1=C(C)N(C)C(C)=C(C(=O)OC)C1c1cc(Br)ccc1F | 0.238 |
| Cc1ccc2nc(-c3ccc(S(=O)(=O)N4CCCCC4)cc3)cn2c1 | -3.57 |
| O=C(O)C1C2c3ccccc3C(c3ccccc32)C1C(=O)Nc1ccc(Cl)cc1 (stereo not drawn) | 7.77 |

| Structure (SMILES) | % Inhibition @ 10 uM [%] |
| --- | --- |
| Cc1nnc(C)n1/N=C\c1cccc(O)c1 | 1.39 |
| O=C(NCCc1ccccc1)c1ccc(NS(=O)(=O)c2ccccc2)cc1 | -2.03 |
| O=C(c1ccc(F)cc1)N1CCN(c2ccc(F)cc2)CC1 | -3.27 |
| CC[C@H](NC(=O)[C@@H](NC(=O)c1ccc(-c2ccccc2Cl)c(Cl)c1)C(C)C)C(=O)c1nc2ccccc2o1 | -6.56 |
| Cc1cc(NC(=O)C2=Cc3sc4c(c3CS2)CCCC4)no1 | 6.01 |
| O=C(Cc1cccc2ccccc12)Nc1ccc(S(=O)(=O)N2CCc3ccccc32)cc1 | 0.472 |
| COc1cccc(CNC(=O)c2ccc(CS(=O)c3cccc(Cl)c3)o2)c1OC (stereo not drawn) | -9.24 |
| CCc1ccc(S(=O)(=O)Nc2cc(SCC(=O)O)c(O)c3ccccc23)cc1 | 7.2 |
| O=C(CCSc1nccn1Cc1ccccc1)N1CCOCC1 | -0.661 |
| O=C(Nc1cccc([N+](=O)[O-])c1)C(C(=O)Nc1cccc([N+](=O)[O-])c1)C12CC3CC(CC(C3)C1)C2 | 3.58 |
| Clc1ccccc1OCCCCCN1CCCC1 | -9.96 |
| O=C(/C=C/c1ccccc1)Nc1nnc(-c2ccccc2F)s1 | -2.13 |
| O=C(COc1ccccc1Cl)Nc1ccc2c(c1)C(=O)N(c1ccccc1)C2=O | -0.598 |
| COc1ccc2nc(NC(=O)c3cc4ccc5cccnc5c4[nH]3)sc2c1 | -0.707 |
| CC(C)Cn1c(=O)c2sccc2n2c(CCCC(=O)NCCC34CC5CC(CC(C5)C3)C4)nnc12 | -6.08 |
| COc1ccc(C(=O)Nc2cccc(C(C)=O)c2)cc1OC | -3.23 |
| O=C(Cc1ccc(-n2c(-c3ccccc3)nc3cccnc32)cc1)NCC1CCCO1 (stereo not drawn) | -5.54 |
| COc1cccc(N(CC(=O)N2CCc3ccccc3C2)S(C)(=O)=O)c1 | -2.03 |
| CN(C)CCN(Cc1ccccc1)Cc1cccc(Br)c1 | -5.2 |
| COc1ccc(CCNS(=O)(=O)c2cn(C)nc2C)cc1 | 5.49 |
| CC(C(=O)O)n1cnc2scc(-c3ccc(Cl)cc3)c2c1=O (stereo not drawn) | 3.25 |

| Structure (SMILES) | % Inhibition @ 10 uM [%] |
| --- | --- |
| COc1cccc(Cn2c(C)c(CNC3CCCC(C)C3C)c(C(=O)O)c2C)c1 (stereo not drawn) | -1.92 |
| Cc1ccc(-c2noc(CCC(=O)NCCC(C)C)n2)cc1 | 5.1 |
| O=C(/C=C\c1ccccc1)c1ccc(C(=O)/C=C\c2ccccc2)cc1 | -1.76 |
| CCOC(=O)c1cc2sccc2[nH]1 | -2.84 |
| OC1CCN(C2C3CC4CC(C3)CC2C4)CC1 (stereo not drawn) | -3.5 |
| CCC(C(=O)N1CCOCC1)n1nc(C)c2sc3ccccc3c2c1=O (stereo not drawn) | -2.29 |
| CCn1c2ccccc2c2cc(C(C)=O)ccc21 | -3.04 |
| Cc1[nH]c2ccc(C(=O)OCCN(C)C)cc2c1C | 0.135 |
| O=C(NCCc1nnc2ccc(NCC3CCCO3)nn12)c1ccccc1 (stereo not drawn) | -3.74 |
| COCCN1C(=O)c2ccccc2C(C(=O)NC(C)C)C1c1c[nH]c2ccccc12 (stereo not drawn) | 1.86 |
| CNC(=O)Cn1ncc2c3ccccc3n(Cc3ccccc3)c2c1=O | -1.58 |
| Cc1cc(OCc2nc(-c3nonc3N)no2)cc(C)c1Cl | 7.97 |
| Cc1c2n(c3ccccc13)CN(C)C(C)C2 (stereo not drawn) | -4.61 |
| COc1ccccc1-c1noc(CCC(=O)NCc2ccco2)n1 | -4.02 |
| CCn1c(C(=O)N2CCC(C(=O)N3CCN(C4CCCCC4)CC3)CC2)cc2sccc21 | -3.35 |
| C=CCn1c(-c2cccc(C)c2)nc2ccccc21 | -2.28 |
| COC(=O)c1cc2oc3ccccc3c2n1Cc1ccccc1F | 1.72 |
| O=C(Nc1ccc(N2CCOCC2)cc1)C1CC(=O)N(c2ccc(Cl)cc2)C1 (stereo not drawn) | 14.3 |
| CCN1C(=O)c2cccc3c(NC(=S)NC(=O)C45CC6CC(CC(C6)C4)C5)ccc1c23 | -2.56 |
| N#CCNC(=O)C(Cc1cc(-c2ccccc2)c(O)c(-c2ccccc2)c1)NC(=O)c1ccc(N2CCOCC2)cc1 (stereo not drawn) | -1.61 |
| CC(=O)OCC(=O)[C@@]1(O)CCC2C3CC[C@H]4CC(=O)CCC4(C)C3CCC21C (stereo partly drawn) | -0.687 |
